Assay [1] deals with T1, RIP3 (Homo sapiens, UniProt Q9Y572).
T1 construct: purchased DiscoverX (KINOMEscan service); host or cells: E. coli BL21-derived (T7 phage) or HEK293
The assay is described as follows: KINOMEscan binding assay, RIP3. The conditions noted are these: equilibrium dissociation constant, class symbols. An excerpt: The Hill Slope was set to −1.

The target in assay [2] is T2, RIP1 (Homo sapiens, UniProt Q13546).
T2 construct: purchased DiscoverX (KINOMEscan service); host or cells: E. coli BL21-derived (T7 phage) or HEK293
T2 sequence (Q13546 1-671): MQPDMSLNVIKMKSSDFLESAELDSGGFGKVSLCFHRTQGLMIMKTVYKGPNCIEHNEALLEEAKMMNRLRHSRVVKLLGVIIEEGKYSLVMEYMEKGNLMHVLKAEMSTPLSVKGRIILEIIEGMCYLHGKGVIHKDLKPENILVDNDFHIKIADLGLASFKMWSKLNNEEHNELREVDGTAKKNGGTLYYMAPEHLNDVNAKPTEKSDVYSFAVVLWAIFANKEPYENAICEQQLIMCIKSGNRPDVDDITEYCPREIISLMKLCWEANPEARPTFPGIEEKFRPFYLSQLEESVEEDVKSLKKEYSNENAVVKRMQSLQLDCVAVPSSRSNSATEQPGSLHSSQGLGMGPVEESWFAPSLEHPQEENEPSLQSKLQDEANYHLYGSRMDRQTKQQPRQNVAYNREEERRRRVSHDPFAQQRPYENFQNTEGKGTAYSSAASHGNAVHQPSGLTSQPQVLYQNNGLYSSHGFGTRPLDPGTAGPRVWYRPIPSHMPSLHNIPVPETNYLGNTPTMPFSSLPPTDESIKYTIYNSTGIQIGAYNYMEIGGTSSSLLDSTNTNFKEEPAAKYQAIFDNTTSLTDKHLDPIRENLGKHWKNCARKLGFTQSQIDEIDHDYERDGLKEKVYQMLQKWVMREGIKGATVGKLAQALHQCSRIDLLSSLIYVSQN
As to the kind of experiment: KINOMEscan binding assay, RIP1. The conditions noted are these: equilibrium dissociation constant, class symbols.

T1 sequence (Q9Y572 whole entry): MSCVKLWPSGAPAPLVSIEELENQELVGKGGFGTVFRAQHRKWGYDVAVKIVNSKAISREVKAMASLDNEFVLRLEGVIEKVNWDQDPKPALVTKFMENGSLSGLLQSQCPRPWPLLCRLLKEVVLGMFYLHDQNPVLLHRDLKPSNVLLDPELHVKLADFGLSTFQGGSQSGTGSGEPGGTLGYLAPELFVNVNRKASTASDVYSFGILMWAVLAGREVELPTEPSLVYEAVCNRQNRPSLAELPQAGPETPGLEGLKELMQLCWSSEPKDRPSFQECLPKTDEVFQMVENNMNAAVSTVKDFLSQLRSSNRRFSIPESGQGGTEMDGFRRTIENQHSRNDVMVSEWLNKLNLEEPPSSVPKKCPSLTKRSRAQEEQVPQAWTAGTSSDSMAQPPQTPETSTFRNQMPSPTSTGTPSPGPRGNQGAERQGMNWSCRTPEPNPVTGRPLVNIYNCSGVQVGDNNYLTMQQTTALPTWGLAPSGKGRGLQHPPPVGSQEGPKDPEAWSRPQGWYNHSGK

In the case of `C[C@H](Oc1cc(-c2n[nH]c(Nc3cnn(C4CCOCC4)c3)c2C(N)=O)ccc1NS(=O)(=O)C(F)F)c1ccc(F)cc1` [Compound 306, (S)-3-(4-((difluoromethyl)sulfonamido)-3-(1-(4-fluorophenyl)ethoxy)phenyl)-5-((1-(tetrahydro-2H-pyran-4-yl)-1H-pyrazol-4-yl)amino)-1H-pyrazole-4-carboxamide], the dissociation constant (Kd) (as a rule, the concentration at which binding is half-saturated) in assay [1] is over 30 µM.
As for `C[C@H](Oc1cc(-c2n[nH]c(Nc3cc(C(F)F)on3)c2C(N)=O)ccc1NS(=O)(=O)C(F)F)c1ccc(F)cc1` [Compound 314, (S)-5-((5-(difluoromethyl)isoxazol-3-yl)amino)-3-(4-((difluoromethyl)sulfonamido)-3-(1-(4-fluorophenyl)ethoxy)phenyl)-1H-pyrazole-4-carboxamide], the Kd in assay [2] and in assay [1] was over 30 µM throughout.

The values above are taken from patent US12583836B2 (Anaxis Pharma Pty Ltd, priority 2020, dated 2026).
